Data reported in PubChem BioAssay (NCI).
Values joined by “and” are separate entries in the source; they are usually repeats but may differ in a detail not shown here. Equal values may be shown once.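 Dose response: 5 concentrations. Exposure: 48 h. Format: 96-well plates. Endpoint: linear interpolation; highest concentration if not reached. Here, GI50 denotes the concentration required for 50% inhibition of growth. TGI: total growth inhibition.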

System: NCI-H322M lung
Test: NCI-60 cell line screen, 48 h

Compound | GI50 | TGI
COC(=O)c1cc2c([nH]c3ccccc32)c(-c2nc3ccccc3cc2CO)n1 | > 100 µM | > 100 µM
COc1cc2c(cc1OC)-c1cc3cc(OC)c(OC)cc3c(C)[n+]1CC2 (tested in a mixture with another compound) | – | > 100 µM
Cc1cc(C(=O)CC(Cl)=C(Cl)Cl)c(Cl)cc1Cl | 23.8 µM | 78.7 µM
O=[N+]([O-])c1cc(C(F)(F)F)cc2c1SC1=Nc3ccccc3CN12 | – | > 100 µM
CN(CCc1ccccn1)/[N+]([O-])=N/O (tested in a mixture with another compound) | – | > 100 µM
Cc1cc2oc(=O)cc(OC/C=C3/CCC(=O)O3)c2cc1C | 7.91 µM | 22.9 µM
Cc1cnc(-c2ccc(-c3ccc(NC(=O)Nc4cccc(C(F)(F)F)c4)cc3F)c3c2C(=O)NC3)[nH]1 | 26.5 µM | > 100 µM
COc1ccccc1/C=C1\CCC(CN2CCOCC2)C1=O (configuration not stated) | – | 32.5 µM
CCCCNP1(NCCCC)=NP(NCCCC)(NCCCC)=NP(NCCCC)(NCCCC)=NP(NCCCC)(NCCCC)=N1 | 0.797 µM | 32.9 µM
CC1=C(C(=O)Nc2ccccc2C)C(c2ccccc2O)C(C(=O)Nc2ccccc2C)=C(C)N1 | – | 81.4 µM
Cc1cnc2c(c1)C(=O)N(c1ccc(Br)cc1)S2(=O)=O | – | > 100 µM
CCCCCCCCCCCCCP(=O)(OC)OC | – | 29.9 µM
Nc1nc(N)c(CCCCc2ccccc2)c(/C=C/c2ccc([N+](=O)[O-])cc2)n1 | – | 30.3 µM
CCN(CC)CCOc1ccc(NC(=O)C(C(C)C)N2C(=O)/C(=C/c3ccc(Br)cc3)SC2=S)cc1 (configuration not stated) | 2.92 µM | 10.7 µM
O=C(C(=O)c1cccnc1)c1cccnc1 | > 100 µM | > 100 µM
CCCCCCCCC1C(C)c2c([nH]c3ccccc23)C2C(=O)N(c3ccccc3)C(=O)C21 (configuration not stated) | – | 35.8 µM
CCOP(=O)(OCC)C(NC(c1ccccc1)c1ccccc1)c1ccsc1 (configuration not stated) | 15.5 µM | 29.7 µM
CN(CO)c1nc(N(C)CO)nc(N(C)CO)n1 | 38.7 µM | > 79.7 µM and 59.3 µM
CCn1c(=O)c2c3ccc(O)cc3[nH]c2c2ccc(O)cc21 | – | > 100 µM
CCOC(=O)C1=C(C)C2C3C(=O)OC(=O)C3C1(C)C1C(=O)OC(=O)C21 (configuration not stated) | – | > 100 µM
COc1cccc(C2c3cc4c(cc3OC(NNC(N)=O)C2C)OCO4)c1OC (configuration not stated) | – | 93 µM
C[N+]1(C)C/C(=C\C=C\c2ccccc2)C(=O)/C(=C/C=C/c2ccccc2)C1 | – | > 86.1 µM
NCCCC(N)(C(=O)O)C(F)F (configuration not stated) | – | > 5000 µM
Cc1cc(N(CCC#N)CCC#N)ccc1/C=C(\N=[N+]=[N-])C(=O)NC(=O)COc1ccccc1 | – | > 100 µM

Compound | GI50 | TGI
c1cc2cc(Cc3ccc4[nH]ccc4c3)ccc2[nH]1 | – | 36.3 µM
CC(=O)c1sc2c(c1OC(=O)c1ccccc1)c(=O)n(-c1ccccc1)c(=S)n2-c1ccccc1 | – | 19.7 µM
Cl.[O-]c1cccc2cccnc12.[O-]c1cccc2cccnc12.[O-]c1cccc2cccnc12.[O-]c1cccc2cccnc12.[Ti+4] | 3.44 µM | > 43.7 µM
Nc1n[nH]c(N)n1 | – | > 10000 µM
C#Cc1cccc(Nc2ncnc3ccc(-c4cnc(N)nc4)cc23)c1 | 0.353 µM | 4.54 µM
O=c1[nH][nH]c(=O)c2c(O)c(-c3ccccc3)ncc12 | 31.7 µM and 70 µM | 851 µM
COC(=O)/C=C(C)/C=C/c1c(C)c(C(C)=O)c(C)n1C | – | > 100 µM
COc1ccc2[nH]cc(C3(c4c[nH]c5ccc(OC)cc45)C(=O)Nc4ccc(Cl)cc43)c2c1 | 3.66 µM | 45.5 µM
COC1/C=C/OC2(C)Oc3c(C)c(O)c4c(O)c(c(/C=N/N(c5ccccc5)c5ccccc5)c(O)c4c3C2=O)NC(=O)C(C)=C/C=C/C(C)C(O)C(C)C(O)C(C)C(OC(C)=O)C1C (configuration not stated) | 5.12 µM | 12.1 µM
O=C(/C=C/c1ccc(O)c(O)c1)c1ccc(O)cc1O | – | 17.2 µM
N#Cc1ccc(C(=O)c2cnn(-c3ccc(F)cc3)c2N)cc1 | > 25 µM | > 25 µM
CCOC(=O)NC(C(F)(F)F)(C(F)(F)F)P(=O)(OCC)OCC | – | > 100 µM
NS(=O)(=O)c1ccc(-n2nc(-c3ccccc3)cc2-c2cc(O)ccc2O)cc1 | 32.4 µM | > 100 µM
Cc1nnc(N)nc1C/C=C/C(C)Sc1ccc(Cl)cc1 (configuration not stated) | – | > 58.3 µM
CC1=C(C(=O)NNC(=O)c2ccccc2O)CC(C(=O)NNC(=O)c2ccccc2O)=C(C)N1 | – | > 100 µM
O=c1[nH]c(Br)nc2n[nH]nc12 | – | > 100 µM
O=C(/C=C/c1ccc(Cl)cc1)c1nc2ccccc2[nH]1 | – | > 100 µM
CC(C)c1ccc(C(O)(C(=O)O)c2ccc(C(C)C)cc2)cc1 | – | > 100 µM
COc1ccc2nc3c([N+](=O)[O-])ccc4c3c(c2c1)N=CN4CCN(C)C | – | 13.1 µM
CCN(CC)CCC(=O)Nc1ccc2sc3ccccc3c(=O)c2n1 | – | 40.7 µM
CCOC(=O)Nc1cc2c(c(N)n1)N=C(c1ccccc1)CN2 | – | 31.8 µM
O=C(N/N=C\c1ccc(Cl)cc1)Nc1cccc2ccccc12 | – | > 43.3 µM
CCOC(=O)C(CCSC)(CCSC)C(=O)OCC | – | > 100 µM
O=C1NC(c2cccc3ccccc23)Nc2ccccc21 (configuration not stated) | 0.172 µM | 0.872 µM

Compound | GI50 | TGI
CCc1nc(N)nc(N)c1-c1ccc(N(C)Cc2ccccc2)c([N+](=O)[O-])c1 | – | 24.5 µM
O=C(O)c1ccc(Nc2nc3ccc(C(F)(F)F)cc3nc2-c2ccccc2)cc1 | – | > 100 µM
C[n+]1ccc2/c(=C\C#N)c3ccccc3n21 | – | 66.4 µM
C=C1C(=O)O[C@H]2C3OC3(C)CC/C=C(/C(=O)OC)[C@@H](OC(C)=O)[C@H](OC(=O)C3(C)OC3C)[C@H]12 (some centres not stated) | 2.52 µM and 4.91 µg/mL | 8.34 µM and 19.3 µg/mL
Cc1ccc2c(c1)C(=O)/C(=C/c1cccc(OCC(=O)c3ccc(Cl)cc3)c1)CS2 | 60.5 µM | > 100 µM
C=C1C(=O)O[C@H]2[C@H]1CC/C(CNC(=O)C(C)c1ccc(CC(C)C)cc1)=C\CC[C@@]1(C)O[C@@H]21 (some centres not stated) | 4.86 µM | 17 µM
CCOC(OCC)[C@@H]1C[C@@H]2N(O[C@H](OC3CCCC3(c3ccccc3)c3ccccc3)[C@H](OC(C)=O)[C@@]2(CC)Cc2ccc(OC)c(OC)c2)O1 (some centres not stated) | – | > 100 µM
C=C(C)C1CC=C(C)C(O)([C@@]2(O)C[C@H](C(=C)C)CC=C2C)C1 (some centres not stated) | – | > 100 µM
CC(=O)OCC1OC([S-])C(OC(C)=O)C(OC(C)=O)C1OC(C)=O.[Au+].c1ccc(CN2[CH-]N(Cc3ccccc3)C(c3ccccc3)=C2c2ccccc2)cc1 | – | 27.3 µM and 5.16 µM
CCCCCCCCCCCCSC1=CC(=O)C=CC1=O | 18.7 µM | > 50 µM
c1ccc(N2CCN(CCCN3CCc4c([nH]c5ccccc45)C3c3cccnc3)CC2)cc1 (configuration not stated) | – | > 100 µM
CC(C)c1ccc(C(c2c(O)c3ccccc3oc2=O)c2c(O)c3ccccc3oc2=O)cc1 | – | 37.8 µM
CCOC(=O)C(C(=O)OCC)S(C)(=O)=O | – | > 100 µM
C[C@@]12C[C@@H](c3ccccc3O1)N1CCCSC1=N2 | – | > 100 µM
CC1=C(N2CC2)C(=O)C(C)=C(N2CC2)C1=O | – | 7.73 µM
CCOC(=O)Cc1ccc(Nc2nc3cc(F)c(F)cc3nc2C(=O)OCC)cc1 | – | > 100 µM
NCCNc1ccc(NCCN)c2c1C(=O)c1c(O)ccc(O)c1C2=O | 0.221 µM | 1.92 µM and 1.24 µM
CCCc1cn2c(/C=N/N=C(N)N)c(-c3ccc([N+](=O)[O-])cc3)nc2s1 | – | 3.56 µM
Cc1cc(S(=O)(=O)Nc2nnc3c(Cl)cc(C(F)(F)F)cn23)c(S)cc1Cl | – | > 100 µM
COc1cc2c(c(OC)c1)C(=O)C(=O)C(CC1(C)OCCCO1)=C2 | – | 28.4 µM
CN(C)c1ccc(/C=N/n2c(CCCCc3n[nH]c(=S)n3/N=C/c3ccc(N(C)C)cc3)n[nH]c2=S)cc1 | > 100 µM | > 100 µM
Cc1ccc(C(CCO)CCO)nc1 | – | > 100 µM
O=C(O)c1ccccc1/C=N\N(CCO)C1=NCCN1 | – | > 100 µM
Oc1ccccc1/C=N\Nc1ccccc1 | 21.5 µM | > 100 µM

Compound | GI50 | TGI
C/C(CC(=O)Nc1cccc([N+](=O)[O-])c1)=N/NC(N)=S | – | > 100 µM
O=C1/C(=C/c2cccc([N+](=O)[O-])c2)Cc2ccccc21 | – | > 100 µM
COc1ccc(C2CC(c3ccc4ccccc4c3)=NN2c2nc(O)c(C3=c4cc(Cl)ccc4=NC3=O)s2)cc1 (configuration not stated) | 0.029 µM and < 0.005 µM | –
O=C(NCCCN1CCN(CCCNC(=O)c2cc(-c3ccccc3)nc3ccccc23)CC1)c1cc(-c2ccccc2)nc2ccccc12 | – | 57 µM
COc1ccc(OC)c(CCc2ccccc2CC(=O)O)c1 | – | > 100 µM
Cc1nccc2c3ccc(OCc4cn(-c5ccc(Br)cc5)nn4)cc3n(CCCc3ccccc3)c12 | > 100 µM | > 100 µM
CC(NNC(=S)N1CCCC1)c1cccnn1 (configuration not stated) | – | > 100 µM
CC(C)C1CCC(=O)CC1CCCCC1CC(=O)CC1O[Si](C)(C)C(C)(C)C (configuration not stated) | – | 29.5 µM
CC1OC(OC2C(O)C(OCCc3ccc(O)c(O)c3)OC(CO)C2OC(=O)/C=C/c2ccc(O)c(O)c2)C(O)C(O)C1O (configuration not stated) | > 100 µM | > 100 µM
O=C1NC(NNc2ccccc2)=N/C1=C\c1ccco1 | – | > 100 µM
C[C@H]1[C@H](C)CC[C@]2(C(=O)O)CCC3(COC(=O)/C=C/c4ccc(O)cc4)C(=CCC4[C@@]5(C)CC[C@H](O)C(C)(C)C5CC[C@]43C)[C@H]12 (some centres not stated) | – | 13.3 µM
Cc1c2c(n3c(nc4ccccc43)c1C#N)NCC2 | – | > 10 µM
CCCn1cc(/C=N\N=C2\C(=O)Nc3ccc(C)cc32)c2ccccc21 | 3.42 µM | > 100 µM
C=C1C(=O)O[C@H]2C1C[C@H](O)/C(C)=C/CC[C@@]1(C)O[C@H]21 (some centres not stated) | – | 48.9 µM
CCOC(=O)C12CCC(c3c(C)cccc3C)(O1)C(C(=O)OC)=C2C(=O)OC (configuration not stated) | – | > 10 µM
CC[C@H](C)C(=O)O[C@H]1CCC=C2C=C[C@H](C)[C@H](CC[C@@H]3C[C@@H](O)CC(=O)O3)[C@H]21 | 6.85 µM | > 100 µM
O=[N+]([O-])c1cc(C(F)(F)F)cc2n[se]nc12 | – | 29.4 µM
N#Cc1ccc(O)c(C2=NCC(c3ccc(-c4ccccc4)cc3)O2)c1 (configuration not stated) | 1.06 µM | 19.2 µM
O=C(O)CC(S)C(=O)O.[Li+].[Sb] (configuration not stated) | 80 µM | > 100 µM
CC(=O)OC(C)(C)C[N+](=O)[O-] | – | > 100 µM
O=C(Nc1cccc(-n2ccc3c(NC(=O)c4ccccc4)nccc32)c1)c1ccc(Cl)c(Cl)c1 | 0.615 µM | 2.1 µM
Cc1nc2c(n1Cc1ccc(F)cc1)C(=O)c1ccccc1C2=O | – | > 100 µM
COc1ccccc1NC(=O)C(=O)C(c1cnc2ccc([N+](=O)[O-])cc2n1)[N+](=O)[O-] (configuration not stated) | – | > 100 µM
CCc1cc2c(Nc3ccccc3)c3c(nc2s1)CCCC3 | – | > 100 µM
